Results as given in PubChem BioAssay AID1347073 (National Center for Advancing Translational Sciences (NCATS), 2019).
About 200 (0.44%) of roughly 45,000 compounds were called active. Roughly 7% stayed inconclusive and do not appear here. The call rests on the fitted dose curve; in most records, active means well fitted activation curve with a large enough effect; inconclusive means small, poorly fitted or top-dose-only effect; inactive means no such curve, though single readings can be large or run the other way. Some of the results follow.

Experiment: qHTS of TDP-43 Inhibitors: NCGC Sytravon Library Screen; further: 0% is about no effect; nearly all actives have a fitted effect of over 55% in size
Conditions: yeast TDP-43 toxicity rescue, BacTiter-Glo growth, 24 h; series mostly up to 46.1 µM; growth rescue (activation): at the top concentration
In short: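 TDP-43-expressing yeast, pregrown in raffinose, seeded at OD600 0.02 in galactose medium with compound for 24 hr at 30 deg C. Growth read by BacTiter-Glo luminescence, so rescue of toxicity appears as activation.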

Compound | growth rescue (activation)
CC(Sc1nnc(COc2ccccc2)n1Cc1ccccc1)C(=O)O (centres undefined) | inactive: 9.82%
NC(=O)c1ccccc1OCC(=O)O | inactive: 1.22%
COc1ccc(N2CCN(C(=O)COCC(=O)O)CC2)cc1 | inactive: 0.298%
COc1ccc(OC)c(Cc2nnc(CCC(=O)N3CCC(N4CCCCC4)CC3)o2)c1 | inactive: -1.66%
CCCCNS(=O)(=O)c1ccc(NC(=O)Cc2ccc(OC)cc2)cc1 | inactive: 4.59%
CNC(=O)Nc1ccccc1C(=O)Nc1ccccc1 | inactive: -18.2%
Clc1ccc(SCCn2ccnc2)cc1 | inactive: -21.5%
COc1ccc(CC(=O)N2CCC(c3ccccc3)C2)cc1 (centres undefined) | inactive: 28.5%
CCCn1c2c(c(O)c(C(=O)Nc3ccc(OC)cc3)c1=O)CCCC2 | inactive: 5.21%
OCCNc1ncnc2c1ncn2[C@H]1CN(Cc2cccs2)C[C@@H](CO)O1 | inactive: -0.183%
CCNC(=O)NC(=O)COC(=O)CCCSc1nc2ccccc2[nH]1 | inactive: 24.5%
COc1ccccc1NC(=O)COC(=O)C12CC3CC(CC(Cl)(C3)C1)C2 | inactive: 19.5%
CC(C)CNc1ncnc2c1ncn2[C@H]1CN(Cc2ccco2)C[C@@H](CO)O1 | inactive: -12%
Cc1cc(N2CCCCC2C)nc(-c2ccccc2O)n1 (centres undefined) | inactive: 1.02%
Cc1ccc(S(=O)(=O)N2CCOCC2)cc1C(=O)N1CC(C)CC(C)C1 (centres undefined) | inactive: -6.89%
CCCNC(=O)C1(C)CCCN(C(=O)C(c2ccccc2)c2ccccc2)C1 (centres undefined) | inactive: 8.64%
CCCCC(=O)N1CC(=O)Nc2ccc(F)cc2C1c1ccccc1 (centres undefined) | inactive: 5.75%
CNc1nc(Oc2ccc3sc(C)nc3c2)c2sccc2n1 | inactive: 18.3%
CC(=O)N1CCOCC1c1cc(C(=O)Nc2ccccc2)no1 (centres undefined) | inactive: 7.83%
CC(C)CC(=O)NC(=S)Nc1nc(-c2ccccc2)cs1 | inactive: 19.3%
CCN(CC)CCCC1(CN)OCCc2ccccc21 (centres undefined) | inactive: 15.4%
CC(=O)NCCNc1nc2cc(-c3ccc(C)cc3)sc2c(=O)n1C | inactive: -3.79%
COc1ccccc1N1CCN(/N=C/C=C/c2ccccc2[N+](=O)[O-])CC1 | inactive: 32%
CCOC(=O)c1[nH]c2ccc(OCC)cc2c1CCCN1C(=O)c2ccccc2C1=O | inactive: 15.4%
Cc1ccc(NC(=S)N2CCN(C(=O)C3CCCO3)CC2)cc1 (centres undefined) | inactive: -12%
O=C(NCc1ccccn1)C(=O)NCc1ccccn1 | inactive: 4.43%
Cc1sc(NC(=O)c2ccccc2)c(C(=O)c2ccccc2)c1C | inactive: 28.7%

Compound | growth rescue (activation)
O=C(NC1CCCCC1)C(c1ccncc1)N(C(=O)c1csnn1)c1ccc(F)cc1 (centres undefined) | inactive: -14.3%
O=c1c(C(c2ccc(Br)cc2)c2c(O)nc3n(c2=O)CCCS3)c(O)nc2n1CCCS2 | inactive: -3.29%
CCCCNC(=O)C1CCCN1S(=O)(=O)c1cccc2nsnc12 (centres undefined) | inactive: 26.6%
O=C(Nn1cnnc1)c1cc(Cl)cc(Cl)c1 | inactive: 7.46%
CN1CCNC(=O)C1CC(=O)N1CC=C(c2ccc(F)cc2)CC1 (centres undefined) | inactive: -1.24%
Cc1nonc1NC(=O)CSc1nc2ccccc2o1 | inactive: 17%
CCCSc1cc(=O)n(-c2ccccc2)nc1C(=O)O | inactive: 7.25%
C=CCN1C(=O)C(C)S/C1=N\S(=O)(=O)c1ccc(Cl)cc1 (centres undefined) | inactive: -2.21%
CCN(CC)C(=O)C(=O)c1cccn1-c1cccc(-n2cccc2C(=O)C(=O)N(CC)CC)c1C#N | inactive: 3.61%
NC(N)=NS(=O)(=O)c1ccc(N/C=C\C(=O)c2ccncc2)cc1 | inactive: -13.8%
COc1ccc2nc(SCC(=O)NC3CC3)c(C#N)cc2c1 | inactive: 2.54%
COCCCC1CCN(C(=O)C2CCC(=O)N(CCc3ccccc3)C2)CC1 (centres undefined) | inactive: 17.9%
CCOCCCN(C(=O)CNC(=O)c1ccco1)C(C(=O)NC1CCCC1)c1cccc(OC)c1 (centres undefined) | inactive: 10.2%
CC(=O)Nc1ccc(S(=O)(=O)N2CCCC(C(=O)N3CCN(c4ccccc4)CC3)C2)cc1 (centres undefined) | inactive: 11.2%
CC(C)C1Oc2ccccc2N(CC(=O)NC2CCCCC2)C1=O (centres undefined) | inactive: 16.6%
C=CCN(c1ccc(Cl)cc1)S(=O)(=O)c1cccc(C(=O)O)c1 | inactive: -2.71%
O=C(COc1ccccc1C(=O)c1cnn(-c2ccccc2)c1)Nc1ccc2ccccc2c1 | inactive: -0.0509%
CCCCn1c(=O)[nH]c(=O)c2c1nc(-c1ccc(OCC)cc1)n2CC | inactive: 4.69%
S=C(Nc1ccc(Br)cc1Cl)NN1CCOCC1 | inactive: -0.534%
CC(C)Oc1ccc(C(=O)Nc2ccc(C(F)(F)F)n(C)c2=O)cc1 | inactive: -0.681%
CC1=NNC(=O)C1CC(=O)N/N=C/C(C)=C/c1ccccc1 (centres undefined) | inactive: 12.2%
C=CC[n+]1c(/C=C2\C=Cc3cc(C)ccc3N2CC)ccc2ccccc21 | inactive: -88.9%
Cc1ccc(C)c(NC(=O)COC(=O)CNC(=O)C2CCCCC2)c1 | inactive: 22%
CCc1nc2c(OCc3ccccc3C(=O)OC)cccn2c1N(C)C(=O)CC(C)C | inactive: -1.66%
COc1ccc(Cc2[nH]n3c(=O)cc(C)nc3c2-c2ccccc2)cc1 | inactive: 13.1%
Cc1ccc(N2C(=O)CC(N3CCN(c4ccc(F)cc4)CC3)C2=O)c(C)c1 (centres undefined) | inactive: 6.69%
CCCC1CCC(c2ccc(C(N)=O)cc2)CC1 (centres undefined) | inactive: -1.71%
